Measured values as given in PubChem BioAssay AID1347073 (National Center for Advancing Translational Sciences (NCATS), 2019).
Screen size: about 45,000 compounds; about 200 (0.44%) were called active. Inconclusive results (about 7%) are left out. Calls follow the shape of the dose curve; as a rule, active = well fitted activation curve with a large enough effect; inconclusive = small, poorly fitted or top-dose-only effect; inactive = no such curve, though single readings can be large or run the other way. The list shows a part of the results.

Assay: qHTS of TDP-43 Inhibitors: NCGC Sytravon Library Screen; also: 0% is about no effect; nearly all actives have a fitted effect of over 55% in size
Details: yeast TDP-43 toxicity rescue, BacTiter-Glo growth, 24 h; series mostly up to 46.1 µM; growth rescue (activation): at the top concentration
How it was run: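 TDP-43-expressing yeast, pregrown in raffinose, seeded at OD600 0.02 in galactose medium with compound for 24 hr at 30 deg C. Growth read by BacTiter-Glo luminescence, so rescue of toxicity appears as activation.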

| SMILES | growth rescue (activation) |
| --- | --- |
| Cc1ccc(OCCCCNC2CCCC(C)C2C)c(C)c1 (stereo unspecified) | inactive: -2.56% |
| CC[C@@H](C)[C@H](NC(=O)C1CCN(C(=O)[C@@H](NS(=O)(=O)c2ccc(C)cc2)C(C)C)CC1)C(=O)O | inactive: -1.42% |
| CNC(=O)Cn1nc(-c2ccc(C)cc2)c2ccccc2c1=O | inactive: -1.22% |
| CCCS(=O)(=O)N1CCCC(C(=O)NCCN(CC)c2ccccc2)C1 (stereo unspecified) | inactive: -3.46% |
| CC1(NC(=O)Nc2cccc(Br)c2)CCS(=O)(=O)C1 (stereo unspecified) | inactive: 19.4% |
| Cc1cc(Nc2ccc(Cl)cc2)nc(NCc2ccccc2)n1 | inactive: 11.2% |
| Cc1cnc(C(=O)OCC(=O)N(Cc2ccccc2)C(C)(C)C)cn1 | inactive: 24.2% |
| Cc1ccc(N(C(=O)c2csnn2)C(C(=O)NCc2ccccc2)c2cccnc2)cc1 (stereo unspecified) | inactive: -25.1% |
| COCCn1c(C)cc(C(=O)COC(=O)c2cncc(Br)c2)c1C | inactive: 17.8% |
| CC(=O)Nc1ccc(N(C(=O)Cn2nnc3ccccc32)C(C(=O)NC2CCCC2)c2ccc(O)c(O)c2)cc1 (stereo unspecified) | inactive: -7.15% |
| CCCCN(C)C(=O)c1ccc(Nc2nc(C(N)CCc3ccccc3)cs2)nc1 (stereo unspecified) | inactive: -0.635% |
| COc1cc2c(cc1NC(=S)Nc1cccc3ccccc13)oc1ccccc12 | inactive: 25.4% |
| CC1=CCC(C(=O)O)C(C(=O)Nc2ccc(-c3nc4ccc(C)cc4s3)cc2)C1 (stereo unspecified) | inactive: 16.7% |
| CNC(=S)NNc1nc(N2CCOCC2)nc(N2CCOCC2)n1 | inactive: 10.8% |
| COC(=O)c1cccc(C(=O)N2CCCC(C(=O)c3cc(F)ccc3F)C2)c1 (stereo unspecified) | inactive: 27.6% |
| NC(=O)c1ccccc1NC(=O)CSc1cn[nH]n1 | inactive: 11.1% |
| CCC1C/C(=C\c2cccnc2)C(=O)/C(=C/c2cccnc2)C1 (stereo unspecified) | inactive: -81.2% |
| CCN1CCN(CCNC(=O)c2ccc3c(c2)N(Cc2ccc(F)cc2)C(=O)/C(=C/c2ccccc2)S3)CC1 | inactive: -59.6% |
| Cc1ccc(N(C(=O)CS(=O)CC(=O)Nc2ccc(F)cc2)C(C(=O)NC2CCCCC2)c2ccco2)cc1 (stereo unspecified) | inactive: 10% |
| C/C(=N\NC(=O)OC(C)(C)C)c1ccc(-n2ccnc2)cc1 | inactive: 8.63% |
| COc1ccc(/C=N/NS(=O)(=O)c2ccc(NC(C)=O)cc2)cc1 | inactive: 28.9% |
| Cc1cc(C)c(NC(=O)COC(=O)CCc2ccc(S(=O)(=O)N3CCCCC3)cc2)c(C)c1 | inactive: -3.28% |

| SMILES | growth rescue (activation) |
| --- | --- |
| O=C(Nc1ccc(N2CCOCC2)cc1)C1(c2ccc(Cl)cc2)CCC1 | inactive: 2% |
| O=C(COC(=O)C12CC3CC(CC(Br)(C3)C1)C2)Nc1cccc(S(=O)(=O)N2CCOCC2)c1 | inactive: 7.62% |
| O=C(Nc1ccc(Cl)c(S(=O)(=O)N2CCOCC2)c1)C1=NN(c2ccccc2)C(=O)CC1 | inactive: -6.8% |
| COc1ccc(C(=O)OCc2nc(N)nc(Nc3ccccc3C)n2)cc1OC | inactive: -4.91% |
| COc1ccc(C(=O)Oc2ccc3ccc(=O)oc3c2)cc1OC | inactive: -8.69% |
| Cc1cccc(NC(=S)N2CCC(NC(=O)c3ccco3)CC2)c1 | inactive: 4.55% |
| Cn1cnnc1SCC(=O)c1ccc(O)c(O)c1 | inactive: 2.22% |
| CCCCn1c(N)c(S(=O)(=O)c2ccc(C)cc2)c2nc3ccccc3nc21 | inactive: 9.29% |
| CC(C)(C)c1ccc(C(=S)N2CCN(c3ccccc3)CC2)cc1 | inactive: 36.5% |
| O=C(Nc1nnc(Cc2ccc(Cl)cc2)s1)C1CCCO1 (stereo unspecified) | inactive: 2.18% |
| CCOc1ccc(S(=O)(=O)N(CC)CC(=O)NCc2ccncc2)cc1C | inactive: -0.498% |
| Cc1cnc(NC(=O)c2cc3ccccc3o2)s1 | inactive: 6.77% |
| Cc1cccc(NC(=O)C2CCCN(S(=O)(=O)c3cccs3)C2)c1C (stereo unspecified) | inactive: 5.11% |
| O=C(Nc1ccc2c(c1)OCO2)C1CCCN1C(=O)Nc1cccc(F)c1 (stereo unspecified) | inactive: 27.5% |
| O=C(Nc1ccc(C(=O)O)cc1)/C(=C\c1ccco1)NC(=O)c1ccco1 | inactive: -8.39% |
| CC(C)(C)OC(=O)NNC(=O)c1cccs1 | inactive: -3.54% |
| O=C(Cc1ccc(F)cc1)N1CCC(N2CCC(C(=O)N3CCOCC3)CC2)CC1 | inactive: -11% |
| Cc1nc2ccc(Br)cc2c(-c2ccccc2)c1C(=O)O | inactive: 16.4% |
| C=CCn1c(C)cc(C(=O)COC(=O)c2n[nH]c(=O)c3ccccc23)c1C | inactive: 1.37% |
| CCCNC(=O)C1(C)CCCN(Cc2ccc3ccccc3c2)C1 (stereo unspecified) | inactive: 9.74% |
| CCS(=O)(=O)N1CCN(S(=O)(=O)c2ccc(S(=O)(=O)NC3CC3)cc2)CC1 | inactive: 4.87% |
| CCN1C(=O)Cc2cc(S(=O)(=O)NCCc3ccccc3)ccc21 | inactive: 14.6% |

| SMILES | growth rescue (activation) |
| --- | --- |
| CC(C)(C)NC(=O)CSc1nc(N)cc(=O)[nH]1 | inactive: 11.1% |
| Cn1c(CCC(=O)OCC(=O)NCC(F)(F)F)nc(=O)c2ccccc21 | inactive: 2.49% |
| CC(C)OP(=O)(OC(C)C)C(O)c1cccc([N+](=O)[O-])c1 (stereo unspecified) | inactive: 1.09% |
| Cc1c(S(=O)(=O)N2CCCC(C(=O)O)C2)cnn1C (stereo unspecified) | inactive: -6.7% |
| CC(=O)c1ccc(NC(=S)NCCc2ccccn2)cc1 | inactive: 9.58% |
| Cc1ccccc1-n1c(SCC(=O)NCC2CCCO2)nnc1-c1ccncc1 (stereo unspecified) | inactive: 10.7% |
| O=C(Nc1ccc(S(=O)(=O)N2CCOCC2)cc1)c1ccc2c(c1)OCO2 | inactive: 11.7% |
| COc1ccc(CN(C)C(=O)COC(=O)c2cnc(Cl)c(Cl)c2)cc1 | inactive: 16.4% |
| CC(C)(C)NC(=S)NNC(=O)[C@H]1C[C@@H]1c1ccccc1 | inactive: -8.55% |
| CC1(C)OC2CC3C4CC(F)C5=CC(=O)C=CC5(C)C4(F)C(O)CC3(C)C2(C(=O)CO)O1 (stereo unspecified) | inactive: 3.9% |
| O=C(C[n+]1cccc(NC(=O)c2ccccc2)c1)c1cccc([N+](=O)[O-])c1 | inactive: -3.54% |
| C=CCn1cccc(C(=O)Nc2ccc(OC)cc2)c1=O | inactive: 2.48% |
| COCC1CCCN(Cc2cn(-c3ccccc3)nc2-c2ccc3c(c2)OCO3)C1 (stereo unspecified) | inactive: -3.25% |
| CCOc1ccccc1CN1CCN(Cc2ccon2)CC1CCO (stereo unspecified) | inactive: 3.11% |
| Cc1nnc(N/N=C/c2ccc(O)c([N+](=O)[O-])c2)[nH]c1=O | inactive: 6.62% |
| CC(C)NC(=O)CC(=O)N/N=C/c1c(F)cccc1Cl | inactive: 11.4% |
| COc1ccc(CCN2CC(C(=O)N3CCC(OC)CC3)CCC2=O)cc1 (stereo unspecified) | inactive: 11.6% |
| CCc1nc2ccc(C(=O)Nc3ccc(NC(C)=O)cc3)cn2c1N(C)CCCc1ccccc1 | inactive: -1.36% |
| COc1ccc(S(=O)(=O)N2CCN(C(=O)NCc3ccc(OC)c(OC)c3)CC2)cc1 | inactive: 5.2% |
| COc1ccc(C2C(C#N)=C(N)OC(C(C)(C)C)=C2C#N)cc1OC (stereo unspecified) | inactive: -21.2% |
| Cc1cccn2c(CNCC3(c4ccccc4)CCCC3)c(C(=O)N3CCOCC3)nc12 | inactive: -1.49% |
| C=CCOn1c(=O)c(-c2ccc(Br)cc2)[n+]([O-])c2ccccc21 | inactive: -7.89% |
